The list shows a part of the results. These are enrichments in a pooled selection; single values are uncertain.
test system: SARS-CoV-2 3CLpro (nsp5); test: substrate phage enrichment score (protease-eluted vs HEPES control, +1 offset) (ratio); higher = better cleaved substrate; details: selection round: 4; protease elution time: 15 min
Protocol: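 Random heptapeptide substrate phage display (M13 pIII fusion, heptapeptide between an N-terminal biotinylated AviTag GLNDIFEAQKIEWHE and pIII; phages immobilised on streptavidin) eluted by cleavage with 50 nM protease in 20 mM HEPES at 37 °C. Selected phages were NGS sequenced, and the enrichment score is (reads in protease sample + 1)/(reads in HEPES blank-selection control + 1).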

Row | Substance | substrate phage enrichment score
1 | ACTLSNQ | > 23
2 | SKSGVLR | > 31
3 | HTPGSLN | > 23
4 | VARNCTR | 2.71
5 | VQLQARY | > 32
6 | LRSTGGQ | > 23
7 | WYFQGGS | 0.75
8 | RNSASVS | 2.65
9 | KQETYSH | > 59
10 | VNGYGLW | > 30
11 | RQDAPIT | > 23
12 | EPQASGS | 11.8
13 | LNPHSHA | > 53
14 | ENKTLQD | 0.222
15 | ESNRTLC | 0.256
16 | RYRPAEQ | > 23
17 | PLPLTQH | 11
18 | VRPHNIN | 1.07
19 | SGIVCLQ | > 25
20 | TETTVRS | 0.923
21 | PSTVIPG | 2.38
22 | TCTTPMS | 3.4
23 | STMSQSS | 0.13

Row | Substance | substrate phage enrichment score
24 | GTLRLRQ | > 25
25 | VSAAAHH | 0.474
26 | ENDGSAY | 0.524
27 | RTNLTLD | > 25
28 | DTEAAHH | 1.93
29 | LRTKEKS | 2.56
30 | AEAAHHH | 0.444
31 | EARTNHR | 1.95
32 | QAGTCRT | 6.2
33 | SKSSMKC | > 30
34 | AAAHQHH | 1.07
35 | RCHLQGG | > 124
36 | TTMQSGI | > 39
37 | VTLQGWQ | > 23
38 | DVGDLSS | > 53
39 | RCHSLIQ | > 58
40 | SNWTVCR | 18.5
41 | PCCKFLP | 2.71
42 | DERVWTN | 4
43 | WNEQKCP | 6.75
44 | PSNTVSN | 0.333
45 | AREISGD | 1.5
46 | TDNRLGM | 0.093

Row | Substance | substrate phage enrichment score
47 | TGTVMSP | 19.5
48 | GMAAHHH | 0.791
49 | RATHTTK | 0.397
50 | RPADLKQ | > 29
51 | VVRPHII | 0.793
52 | MRKSTDV | > 31
53 | HGRGSPW | 3.6
54 | DGTVLQS | 25.5
55 | AKVFNRD | 2.71
56 | CQLQSAE | > 24
57 | RVREASG | 1.88
58 | QTCVPKW | > 30
59 | TTRGSSR | 6.33
60 | ACGPVAS | 5.12
61 | QYDERTR | > 34
62 | SLTSSTI | 2.29
63 | TPSQRCL | 7.25
64 | GGSAAAH | 0.658
65 | GGTAVKR | 1
66 | NPQTPVV | 4.6
67 | TERIHMR | 1.3
68 | TGTSLQG | 10.5
69 | STSRHHV | 0.792

Row | Substance | substrate phage enrichment score
70 | THHHHGA | 0.941
71 | LCPTKHT | 4.6
72 | REQAHLQ | > 26
73 | IRSTGMG | 0.261
74 | RQSGQGT | > 32
75 | CRPAISQ | 0.0952
76 | CREASAQ | 5.35
77 | QLPMLQA | 147
78 | RHMTTDS | > 130
79 | PSARENG | 1.23
80 | SLEVNRQ | 8.33
81 | QHVTSMP | 0.333
82 | PIEVTPS | 0.0556
83 | SNRSTLQ | > 44
84 | SPSCSTQ | 0.966
85 | HPTRPRA | 0.417
86 | NRTPYIM | 13.8
87 | LKVFSRS | 4.88
88 | PCHGNYR | > 110
89 | IQGGSAA | 0.75
90 | ALCPRAD | 0.705
91 | LTHDPKQ | > 50
92 | GVWVQCH | 0.44

Row | Substance | substrate phage enrichment score
93 | YSTLQGG | > 21
94 | SGIPDNR | > 27
95 | EKLNQKM | 0.0536
96 | LATDAGW | 4
97 | SALVSPR | 0.467
98 | PRPSGHP | 0.846
99 | GTWRYTK | > 24
100 | RNSRLQA | 56
101 | ARTLECD | 8.33
102 | STMPDAR | 3.44
103 | LGMCTLQ | > 327
104 | PTCRPEH | 4
105 | KKTPAAH | > 27
106 | GSTGRLS | 0.333
107 | EAPQILQ | 7.25
108 | YTASGAP | 2.1
109 | PNPFEEN | > 26
110 | VQLPKPR | > 24
111 | LRLRGRG | > 52
112 | CWTGRSN | > 21
113 | NSRDSSG | 3
114 | TLELPRG | 0.385
115 | PGIHSPQ | 4

Row | Substance | substrate phage enrichment score
116 | CCAAAHH | 0.833
117 | TGVLQRK | 3.55
118 | APESVGT | > 23
119 | KAMQGTT | 12.1
120 | RAKTENR | > 24
121 | KSAAHHH | 0.895
122 | DCKVLQG | > 23
123 | EKVPRLQ | > 98
124 | WAASMCT | > 29
125 | SDGTQEQ | 1.93
126 | KCNTQFQ | > 32
127 | AQEQPAR | > 39
128 | RDAPADG | > 21
129 | EKDQLRQ | 0.1
130 | RAPACQD | 0.914
131 | AIENPEG | 0.667
132 | ASCATPV | 2.92
133 | ALRDAPL | > 31
134 | SRTVLQS | > 86
135 | TGSGAAE | 0.787
136 | LQGDSQS | 3.4
137 | RTNDAPY | 2
138 | KAAHHHH | 0.686

Row | Substance | substrate phage enrichment score
139 | DINAPET | 2.4
140 | ANMPCER | 15.5
141 | SGPCKLQ | > 382
142 | EPQWSNP | 8.06
143 | NGQNSLT | > 22
144 | RVPAHHH | 12.7
145 | NVLEPTE | 2.7
146 | VAQLQAR | 18.5
147 | ITERDMR | 1.22
148 | DNFLEMN | 3.17
149 | YCDFVTR | > 25
150 | LDVNHDM | 0.35
151 | TESRTDY | 2.43
152 | WMAENER | 7.67
153 | REQTRAL | 5.15
154 | PEVSTTR | > 38
155 | PANVTMR | 2.14
156 | WQSSEAP | > 42
157 | KRCGPSS | > 55
158 | CGSAAAH | 0.382
159 | GQGGSAA | 4.2
160 | VESSKLQ | > 84
161 | QTQIGCP | > 25

Row | Substance | substrate phage enrichment score
162 | NQFTTGQ | 4.33
163 | LSSEQLL | 0.588
164 | CNHRELL | 0.12
165 | TQLHLGR | > 29
166 | MKPTVPE | > 36
167 | KPKPCLH | 3
168 | KKGDYPS | > 142
169 | SAAPQQH | 1.13
170 | TRMNYGQ | 4.5
171 | LDESWVH | 1.48
172 | SEVMRFR | 4.73
173 | VKLRNPN | 0.972
174 | RSCKEQT | > 59
175 | TTLPQTG | 12.3
176 | CSKSRRV | 0.0833
177 | QTSRWPT | 9
178 | RACGNRS | 3.12
179 | YSRLQAS | > 47
180 | QNQESSR | 1.75
181 | TGSGGRS | > 44
182 | VELQSDR | > 31
183 | RLSEMPN | 0.913

Source: the supplement of paper PMC10185492
